The results in this text go back to the RNAGym collection of RNA variant scans (doi:10.7554/elife.90254).

The source gives no read counts; variants with many changes may rest on few reads.

Sequences and labels used below:
B1: LINE1-mini (parent)
chain: GGCAGAGCUCAACACAGCGUGGCAAAGUGGCUGUGGCUAGACUGCC

The variants in the data set derive from B1. The experiment in a line: self-cleavage, relative activity (ratio to wild type); higher = more cleavage; in vitro, sequencing; the parent is a self-cleaving ribozyme.
On to GGCAGAGGUCAACACAGCGUGGCAAAGUGGAUGUGGCUUGACUGCC, for which the self-cleavage was 0.01.

On to GGCAGAGGUCAACACACCGUGGCAAAGUGGCUGGGGCUAGACUGCC, for which the self-cleavage amounted to 0.06. For GGCAGAGGUCAACACAGGGUGGCAAAGUGACUGUGGCUAGACUGCC, the self-cleavage was 0.11. GGCAGAGGUCAACACAGCGUGUCAAAGUUGCUGUGGCUAGACUGCC: the self-cleavage is 0.12. Turning to GGCAGAGGUCAACAGAGCGUGGCAAAGAGGCUGUGGCUAGACUGCC, the self-cleavage was 0.02. The result for GGCAGAGGUCAACACAGCGUGGCAAAGUGGAUAUGGCUAUACUGCC reads 0.01; that for GGCAGAGGACAACUCAGCGUUGCAAACUGGCUUCGGCUAGACUGCC, 0.02; that for GGCAGAGGUCAACACAGCGUGGCAAAGUGGCUCUGGCUAGACUGCA, 0.01. In the case of GGCAGAGGUCAACAGAGCGUGACAACGUGGCUGUGGCUAGACUGCA, the self-cleavage turned out to be 0.02. The figure for GGCAGAGUUCCACACAGCGUGGGUACGUGGUUGUGGCUAGAGUGCC is 0; for GGCAGAGGUCAACACACCGUGGCAAAGGGGCUGUGGCGAGACUGCC it is 0.05; for GGCAGAGGUCAACACAGCGUGGCAAAGUGACAGUGGCUAGACUGCC it is 0.07. The result for GGCAGAGGUCAACACAGCGUGGUAAAGUGGAUGUGGCUAGACUGCC reads 0.06; that for GGCAGAGUUCGACACAACGUGGCAAAGUGGCUGUGGCUAGACUGCC, 0; that for GGCAGAGGUCAACACAACGUGGCAAAGUGGGUGUGGUUAGACUGCC, 0.06. GGCAGAGGUCAACACAGCGUGGCAAAGUGGCUGUGGCGAUACUGCC: the self-cleavage worked out at 0.03. As for GGCAGAGGUCAACACAGCCUGGCAAAGUGGCUGUGGCACGUCUGCC, the self-cleavage came out at 0.02. For the variant GGCAGAGGUCAAAACUGCGUGGCACUGUGGCUGUGGCUAGACUGCC, the self-cleavage was 0.1. On to GGCAGAGGUCAACACAGCGUGGCAAAUUCGCUGUGGCUAGACUGCC, for which the self-cleavage is 0.05. For the variant GGCAGAGGUCAACACAGCGUGGCAAAGGGGCUGUGGCUAGACUGCA, the self-cleavage is 0.07. As to GGCAGAGGUCAACACAGCGUGGCAAAGUUGCUGUUCCUAGACUGCC, the self-cleavage is 0.05. The result for GGCAGAGUUCCACACAACGUGGCAAAGUGGCUGUGGCUAGACUGCC reads 0.02; that for GGCAGAGGUCAAGCCAGCGUGGCAAUGUGGCUGUGGCUAGACUGCC, 0.01.

Consider GGCAGAGGUCAACACAGCCUGGCAAAGUGGCUGUGGCUAGACUGUC, for which the self-cleavage amounted to 0.01. The result for GGCAGAGGUCAACACAGCGUGGCAAAGCGGCUGUGGCUUGACUGCC reads 0.03. As for GGCAGAGGUCAACACAACGUGGCAAAGUGGCUGUGGCUAUACUGCC, the self-cleavage was found to be 0.66.

On to GGCAGAGGAAAACACAGCGUGGCAAAGUGGCUGUGGCUAGACUGCC, for which the self-cleavage turned out to be 0.04. For the variant GGCAGAGGUCAACACAGCGUGGCAAAGUGGAUGUGGCUAGACCGCC, the self-cleavage amounted to 0.03.

On to GGCAGAGGUCAACACAGCGUGGGAAAGUGUCUGUGGCGAGACUGUC, for which the self-cleavage stood at 0.06. As for GGCAGAGGUCAACAAAGCGUGGCAAGGUGGCUGUGGCUAGACUGCC, the self-cleavage is 0.26.

On to GGCAGAGGUCAACACAGCUUUGCAAAGUGGCUGUGGCUAGACUGCC, for which the self-cleavage amounted to 0.04. For the variant GGCAGAGGUCAACACAGCGUAGUUAAGUGGCUGUGGCUAGACUGCC, the self-cleavage turned out to be 0.1. Consider GGCAGAGGUCAACACAACGUGGCAAAGAGGCUGUGUCUAGACUGAC, for which the self-cleavage is 0.03. As to GGCAGAGGUCAACACAGCGUGGCAAAGGGGCUGUGACUAGACUGCC, the self-cleavage came to 0.06. The figure for GGCAGAGGUCAACACAGCGUGGCAAAGGGGCUGUGCCUAGACUGCC is 0.02; for GGCAGAGGUCAAGACAGCGUGGCAAAGUGGAUGUGACUAGACUGCC it is 0.02. The figure for GGCAGAGGACAACACAGAGUGGAAAAGUGGCUGUGGCUAGACUGCC is 0.09; for GGCAGAGGUCAACACAGCGUGGUAAAGUGGCUGUGGCUAGACUAGC it is 0.02; for GGCAGAGGUCAACACAACGUGGUAAGGUGGCUUUGGAUAGACUGUC it is 0.03.

Turning to GGCAGAGGUCAACACAGCGUGGCAAAGCGGGUGUGGCUAGACUGCC, the self-cleavage was 0.

In the case of GGCAGAGGUCAAUACAGCGUGGAAAAGUGGCUGUGGCUAGACUGCC, the self-cleavage stood at 0.06. With GGCAGAGGUCAAUCCAGCGUGGCAAAGUGGCUGUGGCUAGUCUGCC, the self-cleavage is 0.1. In the case of GGCAGAGGUCAACACAUCCUGGCAAAGUGGCUGUGGCUAGACUGCC, the self-cleavage was found to be 0.03. As to GGCAGAGGUCAACACACCGUGGCAAAGUGGCUGUGGCUAGACUGAC, the self-cleavage turned out to be 0.1. As for GGCAGAGGUCAAAAAAGCGUGGCAUAAUGGCUGUGGCUAGACUGCC, the self-cleavage was 0.07. The figure for GGCAGAGGUCAACACAUCGUGGCAAAGUGGCUAUGGCUAGACUGCC is 0.02. As to GGCAGAGGUCAACACAGCCUAGCAAAGUGGCUGUGGCUAUACUGCC, the self-cleavage worked out at 0.02.

For the variant GGCAGAGGUCAAAACAACGUGGCAAAGUGGCUGUGGCUAGACUGCC, the self-cleavage turned out to be 0.04.

With GGCAGAGGUCAACAGAGCGUGGCAAAGUGGCUGUGGCUAGACGGCC, the self-cleavage is 0.

As to GGCAGAGGUCAACACAGCGUGGCAAAUUGGCUGUCGCUAGCCUGCC, the self-cleavage came to 0.01. Take GGCAGAGUUCCACACAGCGUGGCGAAGUGGCUGAGGCUACACUGCC: the self-cleavage was found to be 0.01. For GGCAGAGGUCAACACAGAGUGGCAAAGUGGCUGUGGCUCGACUGCC, the self-cleavage worked out at 0.05. Consider GGCAGAGGUCAACAAAGAGUGGCAAAGUGGCUUUGGAUAGACUGCC, for which the self-cleavage worked out at 0.02.

As to GGCAGAGGUCAACACAGCGUGGUAAAGUGGGCGUGGCUAGAAUGCC, the self-cleavage was 0.14. The figure for GGCAGAGGUCAACACAGCAUGGCACAGUGGCUGUGGCUAGACUGCC is 0.05. As for GGCAGAGGUCAACACAGCGUGGCAAAGUGCCUGUGGCUACACUGCC, the self-cleavage is 0.39.
